Assay results reported in PubChem BioAssay AID485344 (National Center for Advancing Translational Sciences (NCATS), 2010).
The whole screen tested about 340,000 compounds, of which about 6,900 (2%) were called active. Cut-off read from the data, not from the text of the source: active = inhibition above about 30%; inactive = below that, where a call was filed. The list shows a part of the results, in another mix than the full data. Where no call is shown, the source filed none.
Note: 0% is about no effect.

What follows are molecules tested against D(2) dopamine receptor (Homo sapiens) (UniProt P14416) (assay: HTS Assay for Allosteric Antagonists of the Human D2 Dopamine Receptor: Primary Screen for Antagonists). Conditions: HEK293 TREx D2 cells, calcium flux, dopamine EC80; at 10 µM; stronger effect = higher value.
Chain of UniProt P14416 (P14416 whole entry, looked up): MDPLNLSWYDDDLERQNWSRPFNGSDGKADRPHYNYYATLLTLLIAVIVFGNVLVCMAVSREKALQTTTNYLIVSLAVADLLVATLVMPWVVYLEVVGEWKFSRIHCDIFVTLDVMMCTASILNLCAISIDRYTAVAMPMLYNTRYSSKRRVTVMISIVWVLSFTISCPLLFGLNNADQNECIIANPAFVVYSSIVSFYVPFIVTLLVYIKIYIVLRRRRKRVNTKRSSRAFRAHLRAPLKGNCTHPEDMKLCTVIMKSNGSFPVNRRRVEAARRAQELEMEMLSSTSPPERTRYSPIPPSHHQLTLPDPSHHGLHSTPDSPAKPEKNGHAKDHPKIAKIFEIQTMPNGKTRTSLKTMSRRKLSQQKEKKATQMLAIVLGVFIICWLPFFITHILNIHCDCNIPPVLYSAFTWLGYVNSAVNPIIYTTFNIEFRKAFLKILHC
Method in brief: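 Antagonism is scored as inhibition of an EC80 dopamine-evoked calcium signal in a force-coupled, tetracycline-inducible HEK293 T-REx D2 line, with compound present 180 s before agonist.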
In the case of `O=C(NCCC(=O)N(Cc1ccco1)Cc1cccs1)c1ccc(Br)cc1`, the inhibition was active: 41.3%. `COc1ccc(NC(=O)CCS(=O)(=O)c2cc3c4c(c2)CCN4C(=O)CC3)c(OC)c1` gave an inhibition of -12.4%. With `COc1ccc(C(=O)c2c(N)c(C(=O)Nc3ccccc3Cl)c3ccccn23)cc1` the inhibition was -4.64%. With `O=C(COc1ccc2oc3c(c2c1)CCCC3)Nc1cccc(Br)c1` the inhibition was -8.96%. In the case of `CCc1ccc(NC(=O)CCc2c(C)nn(-c3ccc(N4CCCC4)nn3)c2C)cc1`, the inhibition was 7.85%. In the case of `COc1ccc(-c2nc3ccccc3o2)cc1NC(=O)COc1cc(C)cc(C)c1`, the inhibition was 5.11%. Work on `Cc1oc2c(c1C(=O)Nc1ccc(OC(F)(F)F)cc1)C1=NCCN1C=N2` yielded an inhibition of 11.9%. `COc1ccc(NS(=O)(=O)c2cnc(N)nc2)cc1Cl` was tested, and the inhibition was 3.63%. In the case of `O=c1c2c3c(sc2nc2n1CCCCC2)CCCCC3`, the inhibition was active: 56.7%. With `O=C(c1ccc2c(=O)n(CCc3ccccc3)c(=O)[nH]c2c1)N1CCN(c2ccc(F)cc2)CC1` the inhibition was 11%. In the case of `Cc1nn(-c2ccccc2)c2c1N(CC(=O)N1CCN(c3cccc(Cl)c3)CC1)C(=O)CS2`, the inhibition was 3.09%. With `COc1ccc(Cn2c(=O)c3oc4ccccc4c3n(Cc3cccc(C(F)(F)F)c3)c2=O)cc1` the inhibition was 1.58%. With `Cc1cc(C)c(NC(=O)CSCc2c(C)noc2C)c(C)c1` the inhibition was active: 49.1%. With `CCOc1ccc(C(=O)Nc2cccc(-c3nc4cc(Cl)cc(Cl)c4o3)c2)cc1` the inhibition was -6.36%. In the case of `COc1cccc(N2CC(NC(=O)c3ccco3)CC2=O)c1` (stereo unspecified), the inhibition was 26.1%. `CCc1nn(CC(=O)NCCCN(CC(C)C)CC(C)C)c(=O)c2cc3sc(C)cc3n12` was tested, and the inhibition was 9.4%. Molecule `CCCCN(C)C(=O)C1CCCN(c2ncnc3onc(C)c23)C1` (stereo unspecified) has an inhibition of 0.922%. With `COc1ccccc1N1CCN(C(=O)Cn2cnc3onc(-c4ccc(F)cc4)c3c2=O)CC1` the inhibition was -1.23%. Work on `Cc1ccc(C(=O)Nc2cc3nn(-c4ccccc4)nc3cc2Cl)c(C)c1` yielded an inhibition of 3.08%. `CC(C)c1ccc(CN(Cc2ccco2)c2cnc(S(C)(=O)=O)nc2C(=O)Nc2ccc(F)cc2)cc1` showed an inhibition of -26.4%. Molecule `CCOc1ccccc1N(CC(=O)NCCSc1ccccc1)S(=O)(=O)c1ccccc1` has an inhibition of -0.683%. `COc1ccccc1Cc1nc2ccccc2nc1SCC(=O)N(C)c1ccc(F)cc1` was tested, and the inhibition was 5.03%. Molecule `Cc1nnc(N2CCC(C(=O)NCCc3ccccc3Cl)CC2)c2nn(-c3ccccc3)c(C)c12` has an inhibition of 0.776%. With `Cc1cccc(N2CCN(C(=O)Nc3cn(CC(C)C)c(=O)c4ccccc34)CC2)c1C` the inhibition was 5.99%. In the case of `Cc1ccccc1-c1nc2cc(NC(=O)Cc3ccc(Cl)cc3)ccc2o1`, the inhibition was 2.01%. With `CCCCCCOc1ccc(C2C(=O)N(C3CCCCC3)CC(=O)N2CCC)cc1` (stereo unspecified) the inhibition was 9.18%. For `CCOc1ccccc1CNC(=O)C1CCN(c2nn3cc(-c4ccc(F)cc4)nc3s2)CC1`, the inhibition was -7.58%. In the case of `Cc1cccc(N2CCN(C(=O)c3cccc(-n4c(C)nc5cccnc54)c3)CC2)c1C`, the inhibition was -3.57%. In the case of `COc1cc(CNCc2cc(OC)c(OC)c(OC)c2)cc(OC)c1`, the inhibition was active: 30.1%. With `Cc1cccc(N2CCN(C(=O)c3cn(CC(C)C)c(=O)c4c3c3ccccc3n4C)CC2)c1C` the inhibition was -4.34%. `COc1cccc(N2CC(NC(=O)CCCc3ccccc3)CC2=O)c1` (stereo unspecified) showed an inhibition of 12.3%. In the case of `Cc1ccc(NS(=O)(=O)c2c(C)[nH]c(=O)[nH]c2=O)c(C)c1`, the inhibition was -9.14%. `COc1ccc(-c2ccc(NS(=O)(=O)c3ccc(C(C)=O)cc3)cc2)nn1` was tested, and the inhibition was -3.5%. `Cc1ccc(-c2noc(CNC(=O)c3ccc(Br)o3)n2)cc1` showed an inhibition of -6.39%. With `CC12CN3CC(C)(CN(C1)C3c1ccc(Br)cc1O)C2` (stereo unspecified) the inhibition was active: 36.1%. `CCOC(=O)C1CCCN(C(=O)c2cc3c(=O)[nH]c4ccc(C)cc4c3s2)C1` (stereo unspecified) gave an inhibition of -14.3%. For `CN(Cc1ccccc1)S(=O)(=O)c1cc(Br)cc2c1N(C(=O)C1CC1)CC2`, the inhibition was 2.83%. `CCC(C(=O)Nc1c(C)cc(C)cc1C)n1c(=O)c(-c2ccccc2NC(C)=O)nc2ccccc21` (stereo unspecified) was tested, and the inhibition was 1.61%. `COc1ccc(NC(=O)CSc2nnc(NC(=O)Nc3ccc(OC)cc3)s2)cc1` was tested, and the inhibition was -22.8%. Molecule `CCCCN(C)CCCNC(=O)c1cc(-c2ccc(Br)s2)nc2ccccc12` has an inhibition of 9.88%. `Cc1cccc(NC(=O)CCCCCn2c(=O)[nH]c3ccsc3c2=O)c1` was tested, and the inhibition was -3.09%. Molecule `CCOc1ccc(CCNC(=O)CCCn2nc(C)c3sc4ccccc4c3c2=O)cc1` has an inhibition of 5.19%. `COc1cccc(Nc2sc(C(=O)c3ccc(F)cc3)c(N)c2C(=O)NCc2ccc(Cl)cc2)c1` gave an inhibition of 5.7%. In the case of `CC(C)c1ccc(S(=O)(=O)c2nnn3c2nc(N2CCCCC2)c2sccc23)cc1`, the inhibition was -15.8%. In the case of `COc1cccc(C(=O)Nc2ccc(-c3cc(C(F)(F)F)nn3-c3ccccc3)cc2)c1`, the inhibition was -5.32%. `CCOc1ccccc1CNS(=O)(=O)c1ccc2[nH]c(=O)ccc2c1` showed an inhibition of -19.7%. With `CC(C)Cc1ccc(S(=O)(=O)Nc2cc3c(cc2N2CCOCC2)n(C)c(=O)c(=O)n3C)cc1` the inhibition was 1.28%. For `Cc1ccc(C)c(Cn2c(-c3cccs3)nc3ccccc32)c1`, the inhibition was -6.8%. `COc1ccc(NC(=O)CC2C(=O)N(c3cccc(C)c3)C(=O)N2C2CCCCC2)cc1` (stereo unspecified) showed an inhibition of -2.63%. With `COc1ccc(-c2nnc(SCC(=O)Nc3ccc(C(C)C)cc3)nc2-c2ccc(OC)c(OC)c2)cc1OC` the inhibition was -2.89%. With `O=C(NC(Cc1ccc2c(c1)OCO2)C(=O)N1CCCC1C(=O)O)c1ccccc1` (stereo unspecified) the inhibition was active: 34.1%. Work on `Cc1cc(C)cc(S(=O)(=O)c2cn(C)c3cc(N4CCCC4)c(F)cc3c2=O)c1` yielded an inhibition of 1.66%. Molecule `CCc1ccc(NC(=O)CSC2=Nc3ccccc3C3=NC(CCC(=O)NCc4ccco4)C(=O)N23)cc1` (stereo unspecified) has an inhibition of 12%. For `COc1ccc(C(=O)n2nc(-c3ccco3)nc2NCc2cccs2)cc1OC`, the inhibition was 1.89%. `Cc1ccc(-c2nc3sc(CCNC(=O)c4ccc(C)c(C)c4)c(C)n3n2)cc1` gave an inhibition of 10.6%. In the case of `O=C(CN1C(=O)CCc2cc(S(=O)(=O)N3CCOCC3)ccc21)NCc1ccccc1`, the inhibition was -6.72%. In the case of `COc1ccc(-c2nc(CSc3nncn4c3cc3sccc34)c(C)o2)cc1OC`, the inhibition was 19.3%. `CCOc1ccc(C(C)NC(=S)NC2CCCCC2)cc1OCC` (stereo unspecified) was tested, and the inhibition was active: 40.7%. In the case of `COc1ccc(C2=NS(=O)(=O)N(C)C(C(=O)Nc3ccc(OC)c(OC)c3)=C2)cc1`, the inhibition was active: 55.7%. In the case of `CCNc1nc(OC)nc(Oc2ccc(=O)[nH]n2)n1`, the inhibition was 14.6%. With `CCOC(=O)c1sc2nc(SC)nc(-c3ccccc3)c2c1N` the inhibition was active: 30.8%. `CC(C)(C)c1ccc(S(=O)(=O)N2CCN(Cc3noc(CCC(=O)N4CCCCC4)n3)CC2)cc1` showed an inhibition of 6.37%. For `CCOC(=O)C1CCCN(C2CCN(Cc3nc(Cc4ccccc4)no3)CC2)C1` (stereo unspecified), the inhibition was active: 34.2%. `CN(C)S(=O)(=O)c1cccc(NC(=S)NNC(=O)c2cc3ccccc3cc2O)c1` was tested, and the inhibition was active: 56.2%. For `Cc1ccc(-c2c(C)n3c4c(=O)n(C)c(=O)n(C)c4nc3n2CCO)cc1`, the inhibition was 6.99%. `CC(=O)N1CCc2c(sc3c2c(=O)n(CCc2ccccc2)c(=O)n3Cc2ccc(Cl)cc2)C1` was tested, and the inhibition was -0.696%. `CCOC(=O)C1CCN(C(=O)Cn2c(=O)oc3cc(S(=O)(=O)N4CCC(C)CC4)ccc32)CC1` gave an inhibition of -10.9%. Work on `CCOCCCNc1ncnc2c1cnn2-c1ccc(C)c(C)c1` yielded an inhibition of -4.41%. Molecule `Cc1cc2c(cc1S(=O)(=O)N1CCCCC1)OCC(=O)N2` has an inhibition of -10.1%. For `Cc1ccccc1NC(=O)CSc1nc2c(c(=O)n(C)c(=O)n2C)n1Cc1ccccc1F`, the inhibition was 6.67%. In the case of `COc1ccc(Cl)cc1S(=O)(=O)n1cnc2ccccc21`, the inhibition was active: 79%. Work on `O=C(CCS(=O)(=O)c1cccs1)Nc1ccc(C(=O)Nc2ccccc2F)cc1` yielded an inhibition of 9.94%. Molecule `CCSc1ncc(Cl)c(C(=O)Nc2ccc(S(=O)(=O)N3CCCCC3)cc2)n1` has an inhibition of -20.7%. `CCN(Cc1ccccc1)C(=O)CN(c1ccc(OC)cc1)S(=O)(=O)c1c(C)nn(C)c1C` gave an inhibition of -12.6%. Molecule `CCc1ccc(NC(=O)c2ccc3[nH]c(C)c(C)c3c2)cc1` has an inhibition of 0.147%. With `CCCCN(CCCC)CCNC(=O)c1cn(CC)c2ccc(S(=O)(=O)N(C)C3CCCCC3)cc2c1=O` the inhibition was 4.99%. `CCOc1ccc(NC(=O)Cn2c(=O)n(-c3cccc(OC)c3)c(=O)c3c4c(sc32)CCCC4)cc1` gave an inhibition of -9.19%. For `CCOC(=O)c1cccnc1SCC(=O)Nc1ccc(C)cc1C`, the inhibition was 22.8%. Molecule `CCCCc1ccc(NC(=O)c2ccc(=O)n(Cc3cccc(C)c3)c2)cc1` has an inhibition of -8.63%. `Cc1ccc2c(c1)-c1c(cnc3cc(-c4ccccc4)nn13)CO2` gave an inhibition of 3.97%. Work on `O=C(NCCc1ccccc1)c1nnc(Cc2cccc(F)c2)o1` yielded an inhibition of 14.4%. Molecule `COc1ccc(-c2nc(C)c(CCNS(=O)(=O)c3cc(C)c(C)cc3C)s2)cc1` has an inhibition of -19.4%. `CN(C)CCNC(=O)c1ccc2c(=O)n3c(nc2c1)CCCCC3` gave an inhibition of 10%. `Cn1nnc2c(N3CCN(c4ccccc4Cl)CC3)ncnc21` gave an inhibition of -5.32%. `COc1ccc(-c2nc(CN3CCC(C(=O)NCc4ccccc4)CC3)c(C)o2)cc1OC` was tested, and the inhibition was -3.29%. `COc1ccc(-c2c3c(=O)n(C)c(=O)n(C)c3c3c(C)nc4ccccc4n23)cc1` gave an inhibition of -7.88%. `Oc1ccc(N=Nc2ccccc2)cc1` was tested, and the inhibition was active: 33.2%. In the case of `Cc1ccc(-c2nnc(SCc3cccc(C#N)c3)o2)cc1`, the inhibition was 6.4%. In the case of `CCOC(=O)Cn1c(=O)n(-c2ccccc2OC)c2nc(-c3cccc(F)c3)nc(C(N)=O)c21`, the inhibition was 16.6%. In the case of `COc1cc2[nH]c(-c3ccc(C)cc3)cc(=O)c2cc1OC`, the inhibition was active: 83.9%. Molecule `CCOC(=O)c1ccccc1NC(=O)N(C(C)C)C1CCN(C(C)=O)CC1` has an inhibition of 18.7%. In the case of `COc1ccc(/C=N/NC(=O)c2ccc(Br)cc2)c(OC)c1`, the inhibition was active: 33.1%. In the case of `O=[N+]([O-])c1c(Nc2ccc(O)cc2)cc(Cl)c2nonc12`, the inhibition was active: 37.5%. For `CCCC[n+]1ccn(C2=C([O-])c3ccccc3C(=O)/C2=N\S(=O)(=O)c2ccc(Cl)cc2)c1`, the inhibition was active: 33.7%. With `CCOc1ccc(CNC(=O)C2CCCN(S(=O)(=O)c3ccc4c(ccn4C)c3)C2)cc1` (stereo unspecified) the inhibition was 20.1%. For `CCN(CC)c1cc2c(cc1F)c(=O)c(S(=O)(=O)c1ccc(OC)cc1)cn2CC`, the inhibition was -3.22%.
